# A collection of fitness landscapes (doi:10.1016/j.celrep.2020.107928)
# In all, about 81,000 sequences were measured (“one-hybrid fitness for binding parS DNA”: median about -0.17, highest 2% from about 0.51 on). The list shows a part of the results.
# B1: Caulobacter ParB omega fusion; a variant is named by its letters at X, in order, B8GW30 (parent)
# chain: MESVVVGEPGMSEGRRGLGRGLSALLGEVDAAPAQAPGEQLGGSREAPIEILQRNPDQPRRTFREEDLEDLSNSIREKGVLQPILVRPSPDTAGEYQIVAGERAWRAAQRAGLKTVPIMVRELDDLAVLEIGIIENVQRADLNVLEEALSYKVLMEKFERTQENIAQTIGKSXSHVANXMRLLXLPDEVQSYLVSGELTAXHARAIAAAADPVALAKQIIEGGLSVRETEALARKAPNLSAGKSKGGRPPRVKDTDTQALESDLSSVLGLDVSIDHRGSTGTLTITYATLEQLDDLCNRLTRGI
# Variants of: B1
# Assay: one-hybrid fitness for binding parS DNA (scaled: cognate 1, non-cognate 0); higher = stronger binding
# Details: with parS DNA site
# Summary of the method: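 Fitness here means the log change in variant-to-wild-type read ratio between plasmids sequenced before and after selection. That scale was set so cognate equals 1 and non-cognate equals 0. The selection was a bacterial one-hybrid screen of Caulobacter ParB libraries, four specificity codons randomised, in E. coli USO carrying a HIS3 reporter with the site 19 bp from the promoter, grown 48 hours at 37°C on M9-minus-histidine with 0.1 mM IPTG and 5 mM 3-AT.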
row,Variant,one-hybrid fitness for binding parS DNA
1,PALI,≤ 0.2
2,YQMS,≤ 0.2
3,VIPM,≤ 0.2
4,FPCT,≤ 0.2
5,WNDG,≤ 0.2
6,VYCN,≤ 0.2
7,RMPA,0.393
8,NWMT,≤ 0.2
9,DFSL,≤ 0.2
10,RVQK,≤ 0.2
11,KPKY,≤ 0.2
12,NEMR,≤ 0.2
13,LHSA,≤ 0.2
14,AYAE,≤ 0.2
15,RFMI,≤ 0.2
16,CRPG,≤ 0.2
17,QHPA,≤ 0.2
18,NYLI,≤ 0.2
19,SNIR,≤ 0.2
20,DQVS,≤ 0.2
21,SWRW,≤ 0.2
22,KGQY,≤ 0.2
23,YTNR,≤ 0.2
24,RFGK,≤ 0.2
25,YASY,≤ 0.2
26,GETQ,≤ 0.2

row,Variant,one-hybrid fitness for binding parS DNA
1,TMHW,≤ 0.2
2,FMTC,≤ 0.2
3,KGTW,≤ 0.2
4,AYIS,≤ 0.2
5,RVPC,0.637
6,ANHC,≤ 0.2
7,CYTD,≤ 0.2
8,WMQT,≤ 0.2
9,LPMS,≤ 0.2
10,PERG,≤ 0.2
11,KYKF,≤ 0.2
12,SGMD,≤ 0.2
13,TNRG,≤ 0.2
14,THLR,≤ 0.2
15,CLGE,≤ 0.2
16,EGLC,≤ 0.2
17,SKIG,≤ 0.2
18,ALVE,≤ 0.2
19,TLTN,≤ 0.2
20,RTFW,0.233
21,ELQE,≤ 0.2
22,YIRH,≤ 0.2
23,VFPR,≤ 0.2
24,EMFR,≤ 0.2
25,YTLC,≤ 0.2
26,ARSK,≤ 0.2

row,Variant,one-hybrid fitness for binding parS DNA
1,ELAG,≤ 0.2
2,YAGW,≤ 0.2
3,FKRG,≤ 0.2
4,RCMY,0.467
5,QHKF,≤ 0.2
6,DLQS,≤ 0.2
7,ADYV,≤ 0.2
8,TITS,≤ 0.2
9,ICGR,≤ 0.2
10,KTNS,≤ 0.2
11,VQYV,≤ 0.2
12,HPSM,≤ 0.2
13,YAVG,≤ 0.2
14,LNRC,≤ 0.2
15,QVLT,≤ 0.2
16,TPPE,≤ 0.2
17,MIRT,≤ 0.2
18,QSVP,≤ 0.2
19,FQFL,≤ 0.2
20,ISTG,≤ 0.2
21,PTRF,≤ 0.2
22,NHYI,≤ 0.2
23,RHEH,≤ 0.2
24,VAHW,≤ 0.2
25,MPPE,≤ 0.2
26,SQRS,≤ 0.2

row,Variant,one-hybrid fitness for binding parS DNA
1,HYPT,≤ 0.2
2,VYTQ,≤ 0.2
3,LMDT,≤ 0.2
4,EKNM,0.267
5,THQF,≤ 0.2
6,ANID,≤ 0.2
7,LSCR,≤ 0.2
8,RVHD,≤ 0.2
9,ACLS,≤ 0.2
10,SARA,≤ 0.2
11,KFKT,≤ 0.2
12,LCDD,≤ 0.2
13,IRNK,≤ 0.2
14,AIKD,≤ 0.2
15,YECV,≤ 0.2
16,RAAD,≤ 0.2
17,LWSF,≤ 0.2
18,APHI,≤ 0.2
19,FGPC,≤ 0.2
20,EVTI,≤ 0.2
21,FEEG,≤ 0.2
22,AFGC,≤ 0.2
23,SSVV,≤ 0.2
24,SLYF,≤ 0.2
25,LLSP,≤ 0.2
26,YDRR,≤ 0.2

row,Variant,one-hybrid fitness for binding parS DNA
1,FAGG,≤ 0.2
2,TIPY,≤ 0.2
3,THYI,≤ 0.2
4,RVCN,0.438
5,PCYC,≤ 0.2
6,KWLA,≤ 0.2
7,MSGG,≤ 0.2
8,SAFS,≤ 0.2
9,HIRV,≤ 0.2
10,RNIT,0.427
11,GMCS,≤ 0.2
12,NNWS,≤ 0.2
13,TTFP,≤ 0.2
14,GCHI,≤ 0.2
15,VMTL,≤ 0.2
16,NRTF,≤ 0.2
17,TDPV,≤ 0.2
18,GIKA,≤ 0.2
19,KAQC,≤ 0.2
20,PGPV,≤ 0.2
21,PPDI,≤ 0.2
22,EQTA,≤ 0.2
23,NSSM,≤ 0.2
24,ALQC,≤ 0.2
25,HTYR,≤ 0.2
26,RIAD,0.212

row,Variant,one-hybrid fitness for binding parS DNA
1,HQVC,≤ 0.2
2,ITTC,≤ 0.2
3,PTYC,≤ 0.2
4,DPRY,≤ 0.2
5,IQGC,≤ 0.2
6,SALP,≤ 0.2
7,TPPR,≤ 0.2
8,INMN,0.304
9,GTSH,≤ 0.2
10,APVM,≤ 0.2
11,PLQQ,≤ 0.2
12,DVPF,≤ 0.2
13,DTAF,≤ 0.2
14,MQHG,≤ 0.2
15,HDNA,≤ 0.2
16,YFTR,≤ 0.2
17,VMKR,≤ 0.2
18,GLSW,≤ 0.2
19,NVNA,≤ 0.2
20,RNIL,≤ 0.2
21,HMML,≤ 0.2
22,LVPF,≤ 0.2
23,QRRT,≤ 0.2
